No constants are given. Whether binding was seen depends on the method and setting. In cells and extracts the contact can be indirect. Some binding calls cover weakened binding; strength is not graded here. For some assays here: Sequences can lack the tags named with a protein.
Key:
[1] = target: T1, SHC adaptor protein 3 (SHC3) (human (endogenous in U-87 MG)) (UniProt Q92529); experiment: co-IP; anti-SHC3 monoclonal antibody on micromagnetic beads, RIPA lysate of U-87 MG, 5 h at 4 °C; Western blot with specific antibodies; negative control antibody against tetanus toxin
T1 sequence: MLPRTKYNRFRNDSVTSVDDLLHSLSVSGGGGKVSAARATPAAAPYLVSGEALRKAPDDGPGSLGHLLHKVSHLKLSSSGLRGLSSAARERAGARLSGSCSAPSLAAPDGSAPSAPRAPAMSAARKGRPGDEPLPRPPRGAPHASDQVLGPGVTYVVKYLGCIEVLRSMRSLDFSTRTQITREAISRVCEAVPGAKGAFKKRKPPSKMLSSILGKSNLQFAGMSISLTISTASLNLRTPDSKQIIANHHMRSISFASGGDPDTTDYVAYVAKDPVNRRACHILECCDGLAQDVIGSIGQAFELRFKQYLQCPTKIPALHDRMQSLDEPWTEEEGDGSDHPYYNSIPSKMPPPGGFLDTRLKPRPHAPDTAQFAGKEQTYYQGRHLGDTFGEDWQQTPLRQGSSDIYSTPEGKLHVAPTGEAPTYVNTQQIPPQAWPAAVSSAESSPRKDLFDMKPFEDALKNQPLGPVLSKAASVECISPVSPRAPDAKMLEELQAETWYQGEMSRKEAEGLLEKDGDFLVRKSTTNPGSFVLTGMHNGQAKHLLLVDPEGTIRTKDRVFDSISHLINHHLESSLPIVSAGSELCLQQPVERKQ

Amino acid sequences for entries named in this document (tags omitted).
UniProt Q9NSY1: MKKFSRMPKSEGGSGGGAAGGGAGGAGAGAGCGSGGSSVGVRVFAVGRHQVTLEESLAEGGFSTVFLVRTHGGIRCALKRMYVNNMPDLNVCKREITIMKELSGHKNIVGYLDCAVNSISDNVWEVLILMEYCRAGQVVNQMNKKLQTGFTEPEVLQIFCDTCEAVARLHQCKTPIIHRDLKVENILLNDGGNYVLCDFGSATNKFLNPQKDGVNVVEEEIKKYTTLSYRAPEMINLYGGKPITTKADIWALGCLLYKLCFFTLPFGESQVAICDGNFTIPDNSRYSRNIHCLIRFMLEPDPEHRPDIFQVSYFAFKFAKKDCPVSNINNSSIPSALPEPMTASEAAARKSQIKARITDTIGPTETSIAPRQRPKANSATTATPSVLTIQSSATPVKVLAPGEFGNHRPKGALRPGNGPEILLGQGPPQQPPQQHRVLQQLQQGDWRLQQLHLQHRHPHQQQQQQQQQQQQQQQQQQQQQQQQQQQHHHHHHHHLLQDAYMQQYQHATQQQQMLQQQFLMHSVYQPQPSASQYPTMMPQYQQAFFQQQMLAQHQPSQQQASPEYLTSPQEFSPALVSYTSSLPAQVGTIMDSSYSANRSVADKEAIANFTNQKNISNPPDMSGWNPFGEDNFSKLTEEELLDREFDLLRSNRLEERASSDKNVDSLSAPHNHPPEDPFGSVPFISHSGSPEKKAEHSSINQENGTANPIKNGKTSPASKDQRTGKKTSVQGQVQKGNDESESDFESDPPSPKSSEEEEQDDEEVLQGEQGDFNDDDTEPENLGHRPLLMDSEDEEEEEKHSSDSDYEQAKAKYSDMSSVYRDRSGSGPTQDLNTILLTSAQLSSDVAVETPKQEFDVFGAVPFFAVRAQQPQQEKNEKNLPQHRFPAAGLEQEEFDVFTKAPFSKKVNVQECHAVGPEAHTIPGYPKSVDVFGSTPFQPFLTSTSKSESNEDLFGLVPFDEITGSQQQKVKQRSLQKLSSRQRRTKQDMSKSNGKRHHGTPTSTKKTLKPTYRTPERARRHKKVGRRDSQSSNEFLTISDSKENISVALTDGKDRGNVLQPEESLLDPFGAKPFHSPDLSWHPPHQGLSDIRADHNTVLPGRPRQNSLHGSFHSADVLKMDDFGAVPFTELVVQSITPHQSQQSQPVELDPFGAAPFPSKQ
UniProt P78559: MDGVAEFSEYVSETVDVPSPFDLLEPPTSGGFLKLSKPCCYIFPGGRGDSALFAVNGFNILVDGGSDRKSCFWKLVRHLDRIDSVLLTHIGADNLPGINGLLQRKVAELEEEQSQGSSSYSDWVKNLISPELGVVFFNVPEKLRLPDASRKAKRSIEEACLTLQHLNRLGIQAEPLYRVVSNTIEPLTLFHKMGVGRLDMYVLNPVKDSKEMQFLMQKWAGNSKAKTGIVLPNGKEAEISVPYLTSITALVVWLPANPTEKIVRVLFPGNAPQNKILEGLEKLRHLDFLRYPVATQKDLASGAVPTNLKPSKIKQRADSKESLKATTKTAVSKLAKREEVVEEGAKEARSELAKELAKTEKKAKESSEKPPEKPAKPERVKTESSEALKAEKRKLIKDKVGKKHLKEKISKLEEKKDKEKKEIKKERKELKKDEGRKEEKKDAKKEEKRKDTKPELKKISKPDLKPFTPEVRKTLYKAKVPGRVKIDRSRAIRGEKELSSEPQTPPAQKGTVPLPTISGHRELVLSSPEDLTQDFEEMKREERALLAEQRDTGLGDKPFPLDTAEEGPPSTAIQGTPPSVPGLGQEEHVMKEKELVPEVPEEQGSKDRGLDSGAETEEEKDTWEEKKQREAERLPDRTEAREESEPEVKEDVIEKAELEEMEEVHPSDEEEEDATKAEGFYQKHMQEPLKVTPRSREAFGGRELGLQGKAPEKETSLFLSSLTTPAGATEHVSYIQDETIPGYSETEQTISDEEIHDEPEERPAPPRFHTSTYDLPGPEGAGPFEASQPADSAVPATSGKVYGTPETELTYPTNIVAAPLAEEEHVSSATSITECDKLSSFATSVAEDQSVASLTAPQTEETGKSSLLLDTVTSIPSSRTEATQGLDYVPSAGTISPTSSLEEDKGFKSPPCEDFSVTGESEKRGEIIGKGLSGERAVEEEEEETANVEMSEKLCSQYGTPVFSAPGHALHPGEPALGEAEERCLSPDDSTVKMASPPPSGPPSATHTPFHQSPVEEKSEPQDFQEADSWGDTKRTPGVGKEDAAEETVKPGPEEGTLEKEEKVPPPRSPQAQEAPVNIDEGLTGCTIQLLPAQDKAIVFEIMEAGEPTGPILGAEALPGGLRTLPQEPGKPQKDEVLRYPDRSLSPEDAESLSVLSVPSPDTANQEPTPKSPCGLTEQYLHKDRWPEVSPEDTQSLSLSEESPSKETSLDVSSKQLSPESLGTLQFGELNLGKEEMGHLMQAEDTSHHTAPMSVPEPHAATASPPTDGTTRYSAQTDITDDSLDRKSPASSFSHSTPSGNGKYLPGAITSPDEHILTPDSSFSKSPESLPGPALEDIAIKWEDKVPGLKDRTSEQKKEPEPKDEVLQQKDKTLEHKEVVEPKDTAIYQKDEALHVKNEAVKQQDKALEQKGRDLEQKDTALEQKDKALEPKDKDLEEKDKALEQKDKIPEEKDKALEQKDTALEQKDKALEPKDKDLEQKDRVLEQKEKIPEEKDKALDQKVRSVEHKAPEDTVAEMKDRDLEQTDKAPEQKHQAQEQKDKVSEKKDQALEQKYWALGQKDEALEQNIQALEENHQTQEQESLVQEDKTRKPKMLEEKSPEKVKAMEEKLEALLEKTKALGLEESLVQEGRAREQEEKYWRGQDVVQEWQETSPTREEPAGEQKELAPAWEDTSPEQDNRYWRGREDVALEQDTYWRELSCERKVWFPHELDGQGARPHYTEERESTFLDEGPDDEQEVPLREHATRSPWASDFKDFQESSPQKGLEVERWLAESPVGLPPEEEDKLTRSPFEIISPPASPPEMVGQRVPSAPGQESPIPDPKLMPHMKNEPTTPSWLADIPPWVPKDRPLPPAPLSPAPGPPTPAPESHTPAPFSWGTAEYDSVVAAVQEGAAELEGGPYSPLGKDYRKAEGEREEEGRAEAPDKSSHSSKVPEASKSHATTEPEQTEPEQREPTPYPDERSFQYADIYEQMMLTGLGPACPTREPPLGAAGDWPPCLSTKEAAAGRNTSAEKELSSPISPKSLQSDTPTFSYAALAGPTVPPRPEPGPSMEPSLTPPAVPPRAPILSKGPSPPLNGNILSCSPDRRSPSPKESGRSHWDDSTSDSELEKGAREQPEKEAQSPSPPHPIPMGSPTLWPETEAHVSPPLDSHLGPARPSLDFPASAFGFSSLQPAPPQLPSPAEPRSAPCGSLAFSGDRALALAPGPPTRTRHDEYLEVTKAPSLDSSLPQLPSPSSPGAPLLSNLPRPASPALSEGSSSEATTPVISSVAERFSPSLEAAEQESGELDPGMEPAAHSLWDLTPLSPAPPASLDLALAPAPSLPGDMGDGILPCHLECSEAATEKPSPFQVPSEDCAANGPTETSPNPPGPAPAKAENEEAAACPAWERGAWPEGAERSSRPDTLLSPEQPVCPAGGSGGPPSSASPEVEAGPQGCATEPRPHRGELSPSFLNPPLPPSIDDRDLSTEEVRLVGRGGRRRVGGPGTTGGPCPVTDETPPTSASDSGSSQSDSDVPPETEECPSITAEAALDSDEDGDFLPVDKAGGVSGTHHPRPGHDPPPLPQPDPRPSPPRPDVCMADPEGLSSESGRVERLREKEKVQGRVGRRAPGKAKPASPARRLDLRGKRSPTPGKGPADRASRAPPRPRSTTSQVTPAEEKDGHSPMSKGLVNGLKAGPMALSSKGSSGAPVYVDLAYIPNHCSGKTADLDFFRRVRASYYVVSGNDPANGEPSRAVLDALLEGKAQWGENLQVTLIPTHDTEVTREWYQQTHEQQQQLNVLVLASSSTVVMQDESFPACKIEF
UniProt P09874: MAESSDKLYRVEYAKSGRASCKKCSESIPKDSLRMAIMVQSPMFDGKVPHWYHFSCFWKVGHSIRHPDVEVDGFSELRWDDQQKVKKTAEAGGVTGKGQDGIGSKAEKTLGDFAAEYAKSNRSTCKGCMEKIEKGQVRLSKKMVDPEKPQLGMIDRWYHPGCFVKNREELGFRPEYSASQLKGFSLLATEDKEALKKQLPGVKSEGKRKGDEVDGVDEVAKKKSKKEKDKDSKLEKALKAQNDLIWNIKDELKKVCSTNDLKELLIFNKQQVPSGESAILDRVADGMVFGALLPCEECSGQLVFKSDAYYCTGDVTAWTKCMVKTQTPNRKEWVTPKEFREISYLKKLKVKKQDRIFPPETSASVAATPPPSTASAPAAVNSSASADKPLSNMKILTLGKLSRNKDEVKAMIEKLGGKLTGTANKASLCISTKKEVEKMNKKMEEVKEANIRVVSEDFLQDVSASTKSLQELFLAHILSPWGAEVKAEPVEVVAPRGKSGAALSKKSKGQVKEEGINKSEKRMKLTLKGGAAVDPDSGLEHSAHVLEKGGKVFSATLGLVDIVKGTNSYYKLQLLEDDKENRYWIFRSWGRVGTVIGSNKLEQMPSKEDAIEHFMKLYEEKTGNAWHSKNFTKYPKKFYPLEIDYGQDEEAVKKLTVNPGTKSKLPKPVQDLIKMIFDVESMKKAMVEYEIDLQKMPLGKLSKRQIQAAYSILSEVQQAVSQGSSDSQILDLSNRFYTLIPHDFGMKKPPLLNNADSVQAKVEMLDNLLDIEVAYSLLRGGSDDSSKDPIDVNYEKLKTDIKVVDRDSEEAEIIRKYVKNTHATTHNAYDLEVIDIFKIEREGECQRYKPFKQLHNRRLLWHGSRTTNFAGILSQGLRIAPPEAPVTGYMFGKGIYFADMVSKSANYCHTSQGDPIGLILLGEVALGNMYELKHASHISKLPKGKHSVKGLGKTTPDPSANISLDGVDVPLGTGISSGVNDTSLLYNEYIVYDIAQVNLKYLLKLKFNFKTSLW
UniProt P08670: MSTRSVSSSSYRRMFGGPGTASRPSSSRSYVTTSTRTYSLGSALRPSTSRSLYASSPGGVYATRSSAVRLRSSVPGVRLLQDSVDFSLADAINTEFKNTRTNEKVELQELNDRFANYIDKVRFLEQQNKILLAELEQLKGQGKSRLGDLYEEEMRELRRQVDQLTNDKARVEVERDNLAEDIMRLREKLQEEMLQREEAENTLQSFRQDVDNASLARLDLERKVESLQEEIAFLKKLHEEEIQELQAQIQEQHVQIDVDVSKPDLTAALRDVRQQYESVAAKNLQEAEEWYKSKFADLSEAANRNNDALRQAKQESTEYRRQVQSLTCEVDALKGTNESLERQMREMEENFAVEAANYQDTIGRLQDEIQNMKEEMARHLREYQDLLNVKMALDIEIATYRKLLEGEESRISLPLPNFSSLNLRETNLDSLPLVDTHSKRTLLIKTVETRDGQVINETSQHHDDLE

[2] = target: T2, SH2-eCFP fusion protein (human) (UniProt Q92529); experiment: co-IP; anti-eCFP monoclonal antibody (μMACS GFP Isolation Kit) on lysates of U-87 MG transiently transfected with SHC3 domain-eCFP constructs; Western blot for PARP1
T2 sequence: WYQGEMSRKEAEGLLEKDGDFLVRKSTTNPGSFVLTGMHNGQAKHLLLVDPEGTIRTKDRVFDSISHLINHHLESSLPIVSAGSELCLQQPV

[3] = target: T3, p52SHC3 fused to GST expressed in Escherichia coli (human) (UniProt Q92529); experiment: pull-down; p52SHC3 fused to GST, expressed in E. coli, on a column; U-87 MG whole cell extracts; only the target purified
T3 sequence: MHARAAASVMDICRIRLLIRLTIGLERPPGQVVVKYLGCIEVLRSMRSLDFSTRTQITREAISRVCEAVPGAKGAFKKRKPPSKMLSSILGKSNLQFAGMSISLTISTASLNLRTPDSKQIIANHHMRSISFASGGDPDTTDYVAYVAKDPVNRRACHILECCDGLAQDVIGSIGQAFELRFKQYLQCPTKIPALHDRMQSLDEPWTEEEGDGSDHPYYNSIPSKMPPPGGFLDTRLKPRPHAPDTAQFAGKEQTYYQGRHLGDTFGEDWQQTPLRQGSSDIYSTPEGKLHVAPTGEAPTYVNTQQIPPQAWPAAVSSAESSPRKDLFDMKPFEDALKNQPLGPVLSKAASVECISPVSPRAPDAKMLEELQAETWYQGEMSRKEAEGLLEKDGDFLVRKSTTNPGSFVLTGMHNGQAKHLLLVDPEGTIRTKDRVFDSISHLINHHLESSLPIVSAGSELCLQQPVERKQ

| binding [2] | binding [3] | Substance | binding [1] |
| --- | --- | --- | --- |
|  |  | BMP-2-inducible protein kinase (BMP2K) (from UniProt Q9NSY1 1-1161) | binds |
|  |  | microtubule associated protein 1A (MAP1A) (from UniProt P78559 1-2803) | binds |
| no binding |  | poly ADP-ribose polymerase 1 (PARP1) (from UniProt P09874 1-1014) |  |
|  | binds | vimentin (from UniProt P08670 1-466) | binds |

From paper PMC7290719
